The values that follow come from patent US11219214B2, “Benzosultams and analogues and their use as fungicides” (Bayer CropScience Aktiengesellschaft, priority 2016, dated 2022).

The first data set is described as follows: log P determination by HPLC on a reversed-phase column (C 18), EEC Directive 79/831 Annex V.A8, Methods A, B, C. As to conditions: HPLC reversed-phase C 18, Method A: 40° C., 0.1% aqueous formic acid and acetonitrile, linear gradient 10% to 95% acetonitrile. As for the experimental part:
In table 1a, the log P values were determined in accordance with EEC Directive 79/831 Annex V.A8 by HPLC (High Performance Liquid Chromatography) on a reversed-phase column (C 18), using the method described below:
Method A: temperature: 40° C.; mobile phases: 0.1% aqueous formic acid and acetonitrile; linear gradient from 10% acetonitrile to 95% acetonitrile;
Method B: temperature: 40° C.; mobile phases: 0.001 molar ammonium acetate solution in water and acetonitrile; linear gradient from 10% acetonitrile to 95% acetonitrile;
Method C: temperature: 55° C.; mobile phases: 0.1% aqueous formic acid and acetonitrile; linear gradient from 10% acetonitrile to 95% acetonitrile.
If more than one Log P value is available within the same method, all the values are given and separated by “;”.
Iambda-max-values were determined using UV-spectra from 200 nm to 400 nm and the peak values of the chromatographic signals.
Turning to `CC1(C)c2ccccc2N(c2cnc3c(F)cccc3c2)S1(=O)=O` [I.015, 3-(3,3-dimethyl-2,2-dioxido-2,1-benzothiazol-1(3H)-yl)-8-fluoroquinoline], the chromatographic logP (as a rule, a lipophilicity value derived from retention on a column) is 3.05. On to `O=S1(=O)Cc2ccccc2N1c1cnc2c(F)cccc2c1` [I.018, 3-(2,2-dioxido-2,1-benzothiazol-1(3H)-yl)-8-fluoroquinoline], for which the chromatographic logP came out at 2.46.

The data set is the same for the next values; noted with them: HPLC reversed-phase C 18, Method C: 55° C., 0.1% aqueous formic acid and acetonitrile, linear gradient 10% to 95% acetonitrile.
`CC1(C)C(=O)c2ccccc2N(c2cnc3ccccc3c2)S1(=O)=O` [I.156, 3,3-dimethyl-1-(quinolin-3-yl)-1H-2,1-benzothiazin-4(3H)-one 2,2-dioxide]: the chromatographic logP stood at 2.93. As to `CC1Cc2ccccc2N(c2cnc3ccccc3c2)S1(=O)=O` (stereo not shown) [I.158, 3-methyl-1-(quinolin-3-yl)-3,4-dihydro-1H-2,1-benzothiazine 2,2-dioxide], the chromatographic logP is 2.58. On the same count and under the same terms, the same measure for `O=C1CS(=O)(=O)N(c2cnc3ccccc3c2)c2ccccc21` [I.159, 1-(quinolin-3-yl)-1H-2,1-benzothiazin-4(3H)-one 2,2-dioxide]: 2.28; for `CC1Cc2ccccc2N(c2cc3ccccc3[n+]([O-])c2)S1(=O)=O` (stereo not shown) [I.162, 3-methyl-1-(1-oxidoquinolin-3-yl)-3,4-dihydro-1H-2,1-benzothiazine 2,2-dioxide]: 1.8; for `CC1(C)C(F)(F)c2ccccc2N(c2cnc3ccccc3c2)S1(=O)=O` [I.163, 4,4-difluoro-3,3-dimethyl-1-(quinolin-3-yl)-3,4-dihydro-1H-2,1-benzothiazine 2,2-dioxide]: 3.25. For the compound `CC1(C)CS(=O)(=O)N(c2cnc3ccccc3c2)c2ccccc21` [I.166, 4,4-dimethyl-1-(quinolin-3-yl)-3,4-dihydro-1H-2,1-benzothiazine 2,2-dioxide], the chromatographic logP stood at 2.88. On the same count and under the same terms, the same measure for `CC1(C)c2ccccc2N(c2cnc3ccccc3c2)S(=O)(=O)C1(C)C` [I.172, 3,3,4,4-tetramethyl-1-(quinolin-3-yl)-3,4-dihydro-1H-2,1-benzothiazine 2,2-dioxide]: 3.85. On the same count and under the same terms, the same measure for `CC1C(C)(C)c2ccccc2N(c2cnc3ccccc3c2)S1(=O)=O` (stereo not shown) [I.173, 3,4,4-trimethyl-1-(quinolin-3-yl)-3,4-dihydro-1H-2,1-benzothiazine 2,2-dioxide]: 3.57.
